# According to PubChem BioAssay AID2100 (National Center for Advancing Translational Sciences (NCATS), 2009):
# Screen size: about 300,000 compounds; about 1,200 (0.4%) were called active. This list was built around the results that the source calls inconclusive (neither active nor inactive); the mix of calls is not that of the screen. Calls follow the shape of the dose curve; as a rule, active = well fitted inhibition curve with a large enough effect; inconclusive = small, poorly fitted or top-dose-only effect, or another doubt; inactive = no such curve, though single readings can be large or run the other way. A potency beside an inconclusive call is a rough fit, not a confirmed value.
# Target: Lysosomal alpha-glucosidase (Homo sapiens) (UniProt P10253)
# Test: qHTS Assay for Inhibitors and Activators of Human alpha-Glucosidase Cleavage of Glycogen;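 as to activity change, negative = inhibition: 0% = full enzyme reaction and -100% = no-enzyme basal signal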
# Conditions: recombinant GAA, glycogen substrate, Amplex Red glucose oxidase fluorescence; activity change, negative = inhibition: at 76.4 µM (top of the series) unless noted
# Outline: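 Natural-substrate format: glycogen cleavage by 4 nM human enzyme, glucose read by Amplex Red coupling (Ex 573, Em 610 nm). Normalized to enzyme and no-enzyme controls.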
# Potency is read from the fitted curve at half-maximal effect.
SMILES,Potency,"activity change, negative = inhibition"
COc1ccc(Br)cc1C(=O)Nc1cccc2ccc(C)nc12,inactive,
CN(C)c1ccc(NC(=O)Nc2csc3ccccc23)cc1,"inconclusive: 6.26 µM [inhibitor, partial curve]",
COc1cc(C(=O)NNc2nc3cc4c(cc3s2)OCO4)cc(OC)c1OC,active: 25.1 µM,
CC(=O)Oc1ccc(-c2csnn2)cc1,inactive,
CCc1ccc(CNc2ccc3c(c2)ncn3CC)cc1,"inconclusive: 31.6 µM [inhibitor, single point]",
CCOC(=O)c1[nH]c2ccc(OC)cc2c1NC(=S)N1CCN(c2ccccc2)CC1,"inconclusive: 7.94 µM [inhibitor, full curve]",
COc1cc(C)c(CNc2ccc(OC)c(OC)c2)cc1C,"inconclusive: 31.6 µM [inhibitor, partial curve]",
COc1cc(OC)cc(C(=O)NNc2nc3cc4c(cc3s2)OCO4)c1,"inconclusive: 3.55 µM [inhibitor, full curve]",
O=c1c2cccnc2n(Cc2ccccc2F)c(=O)n1Cc1ccccc1Cl,inactive,
C=CCNC(=S)Nc1c(C(=O)OC)[nH]c2cc(OC)ccc12,"inconclusive: 14 µM [inhibitor, partial curve]",
Cn1ccc(-c2ccccc2)n1,inactive,
Cc1ccsc1/C=N\NC(=O)c1n[nH]c2c1CCC2,inactive,
Cc1ccc(S(=O)(=O)Nc2ccc3c(c2)n(C)c(=O)n3C)cc1,inactive,
NNC(=O)c1cc(-c2ccc(O)cc2)nc2ccc(Br)cc12,"inconclusive: 39.8 µM [inhibitor, partial curve]",
COc1ccc(Nc2c(-c3ccco3)nc3ccc(C)cn23)cc1,"inconclusive: 3.14 µM [inhibitor, full curve]",
CC1=NNC(=O)C1CC(=O)N/N=C(\C)c1cccs1 (stereo unspecified),"inconclusive: 14.1 µM [inhibitor, partial curve]",
CC(=O)C1=C(C)NC(SCC(=O)c2ccc(Cl)cc2Cl)=C(C#N)C1c1ccco1 (stereo unspecified),"inconclusive: 44.7 µM [inhibitor, single point]",
COc1ccc(CC(NC(C)=O)C(=O)NC2CCN(C(=O)c3ccccc3F)CC2)cc1 (stereo unspecified),"inconclusive: 11.2 µM [inhibitor, single point]",
O=C1C2Sc3[nH]c(=O)sc3C(c3ccccc3)C2C(=O)N1c1ccc(Cl)cc1 (stereo unspecified),active: 28.2 µM,
COc1ccc(N2C(=O)CC(Sc3ccccc3C(=O)O)C2=O)c([N+](=O)[O-])c1 (stereo unspecified),"inconclusive: 39.8 µM [inhibitor, single point]",
COC(=O)C1=C(C)N(Cc2ccccc2)C(=NCC(C)C)N[C@H]1c1ccccc1,"inconclusive: 35.5 µM [inhibitor, single point]",
Nc1sc2c(c1C(=O)c1ccccc1)CCCC2,"inconclusive: 39.8 µM [inhibitor, partial curve]",
Cc1ccccc1Nc1c(-c2cccnc2)nc2ccc(Br)cn12,"inconclusive: 31.6 µM [inhibitor, partial curve]",
Cc1ccc(-c2nc(C#N)c(NCCN3CCCCC3)o2)cc1,"inconclusive: 28 µM [inhibitor, partial curve]",

SMILES,Potency,"activity change, negative = inhibition"
Oc1ccc(-c2csc(Nc3ncccn3)n2)cc1O,active: 7.03 µM,
Cc1ccc(NC(=S)NC(=O)/C=C/c2ccco2)c(O)c1,"inconclusive: 12.6 µM [inhibitor, partial curve]",
CC(C)(C)NC(=O)C(c1ccncc1)N(Cc1cccs1)C(=O)Cn1nnc(-c2ccc(F)cc2)n1 (stereo unspecified),"inconclusive: 20 µM [inhibitor, partial curve]",
Cc1c(NC(=S)N2CCN(c3cccc(Cl)c3)CC2)c(=O)n(-c2ccccc2)n1C,"inconclusive: 39.8 µM [inhibitor, partial curve]",
CCN(CC)S(=O)(=O)c1cc(C(=O)c2nccn2C)ccc1Cl,,inconclusive: 32.5% [activator]
FC(F)(F)C(F)(F)C(F)(F)c1nnc2ccc(N3CCOCC3)nn12,inactive,
Oc1ccc(-c2nc3ccc4ccccc4c3c3c2CCC3)cc1O,"inconclusive: 25.1 µM [inhibitor, partial curve]",
O=C1Nc2ccc(Br)cc2C12NNc1ccccc1O2 (stereo unspecified),"inconclusive: 14.1 µM [inhibitor, partial curve]",
CCCN1CCN(C(=S)Nc2ccc3nc(N4CCN(CC)CC4)cc(C)c3c2)CC1,"inconclusive: 22.4 µM [inhibitor, partial curve]",
CC(=O)c1sc(N/N=C\c2ccccc2O)nc1C,"inconclusive: 22.2 µM [inhibitor, single point]",
O=C(Nc1ccc(Cl)cc1)NC1CCCCC1,inactive,
Cc1nc2cc(NCc3ccccc3O)ccc2n1Cc1ccccc1,"inconclusive: 39.5 µM [inhibitor, single point]",
CC1=C(C(N)=O)C(c2cccs2)n2nc(-c3cccc(Cl)c3)nc2N1 (stereo unspecified),"inconclusive: 12.5 µM [inhibitor, partial curve]",
CCOc1ccc(Nc2oc(Cc3ccccc3)nc2C#N)cc1,"inconclusive: 11.2 µM [inhibitor, partial curve]",
N#Cc1cc2cc3c(cc2nc1N1CCCCC1)OCCO3,"inconclusive: 24.9 µM [activator, single point]",
COC(=O)Nc1ccc(S(=O)(=O)Nc2ccc(O)cc2)cc1,active: 31.6 µM,
O=c1[nH]c(/C=C\c2cccs2)nc(O)c1[N+](=O)[O-],"inconclusive: 20 µM [inhibitor, partial curve, poor fit]",
CCOc1c(O)ccc(/C=C2\SC(=S)NC2=O)c1[N+](=O)[O-],"inconclusive: 35.5 µM [inhibitor, partial curve]",
Cc1cc([N+](=O)[O-])c(C)cc1-c1ccc(/C=N/NC(=O)c2cccnc2)o1,"inconclusive: 22.4 µM [inhibitor, partial curve]",
Cc1cc(N2CCN(C)CC2)nc2ccc(NC(=S)N3CCCCC3)cc12,"inconclusive: 8.91 µM [inhibitor, partial curve]",
COc1ccc2c(c1)C(C)=CC(C)(C)N2C(=O)Nc1ccccc1,active: 35.5 µM,
NS(=O)(=O)c1ccc(NNC(=O)c2ccccc2C(=O)O)cc1,"inconclusive: 11.2 µM [inhibitor, partial curve]",
CCOc1cccc(-c2cc(C(=O)NN)[nH]n2)c1,"inconclusive: 31.6 µM [inhibitor, partial curve]",
N#Cc1c(NC(=S)NC(=O)Cc2cccs2)sc2c1CCCCC2,"inconclusive: 35.5 µM [inhibitor, partial curve]",

SMILES,Potency,"activity change, negative = inhibition"
CCC(C)(C)NC(=O)C(c1ccncc1)N(Cc1cccs1)C(=O)Cn1nnc2ccccc21 (stereo unspecified),"inconclusive: 24.9 µM [inhibitor, partial curve]",
C/C(=N\NC(=S)NC(C)C)c1ccc(Cl)s1,"inconclusive: 22.2 µM [inhibitor, partial curve]",
Cc1cnn(CCC(=O)NNC(=S)Nc2ccccc2)c1,"inconclusive: 31.4 µM [inhibitor, single point]",
CCc1ccc(C(=O)NNc2ccc(C)c(Cl)c2)cc1,"inconclusive: 31.6 µM [inhibitor, partial curve]",
Cc1cc(C)cc(-n2nnn(C3C/C(=N/NC(N)=S)C4OCC3O4)c2=S)c1 (stereo unspecified),"inconclusive: 39.8 µM [inhibitor, single point]",
CCOc1cccc(CNc2ccc(O)cc2)c1OCc1ccc(Cl)cc1,"inconclusive: 39.8 µM [activator, single point]",
c1cncc(-c2nc3ccccn3c2Nc2ccc3c(c2)OCCO3)c1,inactive,
O=C(Cn1c(=O)oc2cc(S(=O)(=O)N3CCCCC3)ccc21)NCc1ccc(F)cc1,"inconclusive: 3.98 µM [inhibitor, full curve, poor fit]",
NNC(=O)c1cc2nc(-c3cccs3)cc(C(F)(F)F)n2n1,"inconclusive: 35.5 µM [inhibitor, single point]",
COc1ccc(OCc2cc(C(=O)N(C)C3CCOCC3)no2)c2ccccc12,inactive,
COc1ccc(Nc2nc(NN)nc(Nc3ccc(OC)cc3)n2)cc1,"inconclusive: 28.2 µM [inhibitor, single point]",
COCCNc1c(-c2ccc(OC)cc2)nc2ccc(Cl)cn12,active: 4.97 µM,
c1ccc(-c2csc(Nc3ccc4c(c3)OCCO4)n2)cc1,"inconclusive: 19.8 µM [inhibitor, partial curve]",
CC1=NC(C#N)=C(C#N)NC(C)(C)C1,"inconclusive: 39.8 µM [inhibitor, single point]",
Cn1nc(C(=O)NCc2ccccc2)c2c1-c1ccccc1S(=O)(=O)C2,"inconclusive: 11.2 µM [inhibitor, single point]",
CCOc1ccc(CNCc2c(C(=O)O)n(Cc3ccccc3C)c3cc(OC)ccc23)cc1OC,"inconclusive: 11.2 µM [inhibitor, single point]",
O=C(O)c1cccc(N/N=C/c2cccc3ccccc23)c1,active: 31.6 µM,
O=C(NNc1c2ccccc2nc2ccccc12)c1cccc(O)c1,"inconclusive: 22.2 µM [inhibitor, single point]",
CSc1ccc(CCNC(=O)CCCn2c(=O)c3cccn3c3ccccc32)cc1,inactive,
CCOC(=O)C1=C(C)Nc2ncnn2C1c1c[nH]c2ccccc12 (stereo unspecified),"inconclusive: 25.1 µM [activator, partial curve]",
O=C(Nc1ccccc1)Nc1ccc(C(F)(F)F)cn1,inactive,
CCOC(=O)C1CCN(C(=O)c2c(C)oc3c2C(=O)c2ccccc2C3=O)CC1,inactive,
C/C(CC(=O)Nc1ccc(N(C)C)cc1)=N\NC(=O)c1cnccn1,"inconclusive: 15.8 µM [inhibitor, partial curve]",
